PubChem BioAssay AID360 (National Center for Advancing Translational Sciences (NCATS), 2006)
Among all 48,000 compounds or so, about 550 (1.1%) were called active. Not shown: some 4% with an inconclusive outcome. No stated cut-off is given here; in the data, active means potency below about 15 µM; inconclusive means mostly about 16 µM to 33 µM; inactive means weaker than that. Some of the results follow.

These compounds were tested against Lysosomal acid glucosylceramidase (Homo sapiens) (UniProt P04062) (assay: Glucocerebrosidase). Conditions: purified enzyme, resorufin glucoside fluorescence (screen aimed at inhibitors), 20 min; series mostly up to 77 µM.
Summary of the method: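 Wild-type enzyme at 0.2 nM final in 50mM citric acid/KH2PO4, 10mM sodium taurocholate, 0.01% tween-20, pH 5.9, with resorufin beta-D-glucopyranoside at 30 uM final. Compounds titrated, 20 min at RT, red fluorescence read; AC50 from titration.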
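Further: the screen sought inhibitors.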
Potency means the concentration at half of the fitted maximal effect.

Chain of UniProt P04062 (P04062 whole entry, looked up): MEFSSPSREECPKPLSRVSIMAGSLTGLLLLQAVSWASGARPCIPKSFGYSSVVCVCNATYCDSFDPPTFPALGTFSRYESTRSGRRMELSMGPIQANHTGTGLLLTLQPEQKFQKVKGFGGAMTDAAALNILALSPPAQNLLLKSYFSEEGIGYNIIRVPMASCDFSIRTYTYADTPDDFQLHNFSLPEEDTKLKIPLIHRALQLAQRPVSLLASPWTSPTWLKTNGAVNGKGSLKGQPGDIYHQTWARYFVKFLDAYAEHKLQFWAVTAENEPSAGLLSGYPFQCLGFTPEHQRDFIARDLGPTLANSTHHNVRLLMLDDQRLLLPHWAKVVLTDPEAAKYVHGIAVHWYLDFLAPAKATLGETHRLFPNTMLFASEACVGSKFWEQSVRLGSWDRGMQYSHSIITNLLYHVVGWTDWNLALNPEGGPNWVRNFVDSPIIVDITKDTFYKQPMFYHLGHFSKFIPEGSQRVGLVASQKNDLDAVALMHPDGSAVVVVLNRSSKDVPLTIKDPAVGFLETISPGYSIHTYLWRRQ

| SMILES | Potency |
| --- | --- |
| CC1CCC/C(=C\Nc2ccc3c(c2)OCO3)C1=O (stereo not drawn) | inactive: > 76.9 µM |
| CC#CCN(CC#CC)S(=O)(=O)c1ccc(S(=O)(=O)N2CCOCC2)cc1 | inactive: > 76.9 µM |
| COc1ccc(CCC(=O)NCc2cnn(C)c2)cc1 | inactive: > 76.9 µM |
| CCOC(=O)c1c(C)[nH]c(C(=O)CN2C(=O)NC(CC)(c3ccccc3)C2=O)c1C (stereo not drawn) | inactive: > 76.9 µM |
| CC(c1ccco1)N(C(=O)COc1ccc(Cl)cc1Cl)c1ccccn1 (stereo not drawn) | inactive: > 76.9 µM |
| Cc1ccccc1CN1CCN(CC(=O)NCc2ccccc2)C1=O | inactive: > 76.9 µM |
| N#Cc1ccsc1NC(=O)COc1ccc(-c2nnco2)cc1 | inactive: > 76.9 µM |
| COC(=O)c1ccc(NC(=O)c2ccc3c(c2)OCO3)cc1 | inactive: > 76.9 µM |
| CCn1cc(C(=O)NCc2ccccn2)c(=O)c2cc(S(=O)(=O)N3CCCCC3)ccc21 | inactive: > 76.9 µM |
| O=C(O)c1[nH]c2ccccc2c1CC(=O)N1CCOCC1 | inactive: > 76.9 µM |
| COc1ccc2[nH]c(=O)c(C(c3nnnn3C(C)(C)C)N(Cc3ccco3)CC3CCCO3)cc2c1 (stereo not drawn) | inactive: > 76.9 µM |
| Cc1oc2c(C)c3oc(=O)c4c(c3cc2c1C)CCC4 | inactive: > 76.9 µM |
| O=C(CC1Nc2ccccc2NC1=O)NC1CCCCC1 (stereo not drawn) | inactive: > 76.9 µM |
| CCCn1cc(S(=O)(=O)CC(=O)NC2CCCCC2)c2ccccc21 | inactive: > 76.9 µM |
| COc1cccc(NC(=O)c2ccc3c(c2)N(CC(=O)N2CCCCC2)C(=O)C(C)(C)O3)c1 | inactive: > 76.9 µM |
| COc1ccccc1N(CC(=O)Nc1cc(C)on1)S(=O)(=O)c1cccs1 | inactive: > 76.9 µM |
| COC(=O)c1ccc(Nc2cc(C)nc3ncnn23)cc1 | inactive: > 76.9 µM |
| O=c1cc(CSc2ccc(Cl)cc2)nc2nc[nH]n12 | inactive: > 76.9 µM |
| CC(NC(=O)c1csc2ccccc12)C1CCCO1 (stereo not drawn) | inactive: > 76.9 µM |
| Cc1ccc(NC(=O)c2cnn(-c3ccccc3)c2NC(=O)c2ccco2)cc1 | inactive: > 76.9 µM |
| CCC(=O)N1CCc2cc(Br)cc(S(=O)(=O)N3CCCCCC3)c21 | inactive: > 76.9 µM |
| CC(C)Cn1cnc2c1c(=O)n(CC(=O)Nc1ccc3c(c1)OCO3)c(=O)n2Cc1ccccc1 | inactive: > 76.9 µM |

| SMILES | Potency |
| --- | --- |
| CC12CN3CC(C)(CN(C1)C31C(=O)N(Cc3ccccc3)c3ccccc31)C2=O (stereo not drawn) | inactive: > 76.9 µM |
| Cc1cccc(S(=O)(=O)c2c(N)n(/N=C/c3cccnc3)c3nc4ccccc4nc23)c1 | inactive |
| CCn1c(SCc2ccc(C#N)cc2)nnc1-c1ccc(S(=O)(=O)N2CCCCC2)cc1 | inactive: > 76.9 µM |
| Cc1c(CN2CCCCC2)c(O)n(CCCO)c(=O)c1C#N | inactive: > 76.9 µM |
| Cc1cc(C(F)F)n2nc(C(=O)NCc3ccccc3F)nc2n1 | inactive: > 76.9 µM |
| COc1ccc2c(c1)C(C)=CC(C)(C)N2C(=O)C(C)N1C(=O)c2ccccc2C1=O (stereo not drawn) | inactive: > 76.9 µM |
| O=c1nc2n(c3ccccc13)Cc1ccccc1-2 | inactive: > 76.9 µM |
| Cc1cc(C)n2c(Br)c(CSc3nc4ccccc4o3)nc2n1 | inactive: > 76.9 µM |
| C/C=C/CSc1nc2c(c(=O)[nH]c(=O)n2C)n1C(C)C | inactive: > 76.9 µM |
| Cc1cc(C)nc(NC2=NCC(=O)N2c2ccc(F)c(Cl)c2)n1 | inactive: > 76.9 µM |
| CCOc1c(OC)cc(C2C(C#N)=C(N)Oc3n[nH]c(-c4ccncc4)c32)cc1OC (stereo not drawn) | inactive: > 76.9 µM |
| COc1ccc2cc3cc(C(=O)NCC4CCCO4)oc3nc2c1 (stereo not drawn) | inactive: > 76.9 µM |
| Cc1ccc(N(CN2CCCC2=O)C(=O)c2ccc(OC(C)C)cc2)cc1 | inactive: > 76.9 µM |
| C=CCSc1n[nH]c(-c2ccc(OCCCC)cc2)n1 | inactive: > 76.9 µM |
| CCOc1cc(C)nc(Oc2ccc(=O)[nH]n2)n1 | inactive: > 76.9 µM |
| Cc1cccn2c(=O)c3cc(C(=O)NCC4CCCO4)c(=N)n(Cc4cccnc4)c3nc12 (stereo not drawn) | inactive: > 76.9 µM |
| O=C1CSC(c2ccccc2)N1CC12CC3CC(CC(O)(C3)C1)C2 (stereo not drawn) | inactive: > 76.9 µM |
| Cc1ccnc(N2CCC(C(=O)Nc3ccc4c(c3)OCO4)CC2)n1 | inactive: > 76.9 µM |
| CCN(CC)c1cc(C)c2cc(NC(=O)CNC(C)=O)ccc2n1 | inactive: > 76.9 µM |
| CNC(=O)N(O)C1N(C)C(=O)N(CC(=O)OC)C1(C)C (stereo not drawn) | inactive: > 76.9 µM |
| COc1cccc(C2C(C(=O)c3cc4cccc(OC)c4o3)=C(O)C(=O)N2c2cc(C)on2)c1OC (stereo not drawn) | inactive: > 76.9 µM |
| C=CCn1c(Cc2cccs2)nnc1SCC(=O)Nc1ccc(OC)c(OC)c1 | inactive: > 76.9 µM |

| SMILES | Potency |
| --- | --- |
| CN(C(=O)C1CCOC1)c1nnc(C2CCOC2)s1 (stereo not drawn) | inactive: > 76.9 µM |
| Cc1cccc(NC(=O)C2CCCN2C(=O)OCC(C)C)c1C (stereo not drawn) | inactive: > 76.9 µM |
| COc1ccccc1CN(Cc1cc2cc(C)ccc2[nH]c1=O)Cc1nnnn1CC1CCCO1 (stereo not drawn) | inactive: > 76.9 µM |
| COc1ccc(OC)c2sc(N3CCCCC3)nc12 | inactive: > 76.9 µM |
| CCCn1c2c(c(O)c(C(=O)Nc3ccccc3)c1=O)CCCC2 | inactive: > 76.9 µM |
| Cc1ccc(-c2csc3nnc(SCC(=O)NCc4ccco4)n23)cc1 | inactive: > 76.9 µM |
| COC(=O)CSc1nnc(-c2ccccc2O)n1-c1ccc(C)cc1 | inactive |
| Cc1c(C(=O)NC(C)c2ccncc2)oc2ccccc12 (stereo not drawn) | inactive: > 76.9 µM |
| O=C(c1ccc2c(=O)n(Cc3ccc4c(c3)OCO4)c(=S)[nH]c2c1)N1CCCCC1 | inactive: > 76.9 µM |
| COc1ccc(-c2[nH]ncc2-c2ccc3c(c2)OCCO3)c(O)c1 | inactive: > 76.9 µM |
| CCCCOc1ncnc2c1[nH]c1ccccc12 | inactive: > 76.9 µM |
| O=C(c1ccc(=O)n(Cc2ccccc2)n1)N1CCN(C/C=C/c2ccccc2)CC1 | inactive: > 76.9 µM |
| Cc1csc(SCCn2c(N3CCN(c4ccccc4)CC3)nc3c2c(=O)[nH]c(=O)n3C)n1 | inactive: > 76.9 µM |
| CCCC(C(=O)NC1CCCC1)N(Cc1cccs1)C(=O)c1snc(C(N)=O)c1N (stereo not drawn) | inactive: > 76.9 µM |
| O=C(c1nc2n(n1)C(c1ccc(Cl)cc1)C=C(c1ccccc1)N2)N1CCOCC1 (stereo not drawn) | inactive: > 76.9 µM |
| c1cncc(-c2nc(-c3ccco3)cs2)c1 | inactive: > 76.9 µM |
| Cc1noc(C)c1C(=O)NCCCN1CCCC1=O | inactive: > 76.9 µM |
| CN(C)c1cccc(C(=O)Nc2cccc(F)c2)c1 | inactive: > 76.9 µM |
| COc1cc(C(=O)N2CCN(c3ncnc4sc(C)c(C)c34)CC2)cc(OC)c1OC | inactive: > 76.9 µM |
| Cc1cccc2cc(CN(CC3CCCO3)C(=O)NC3CCCCC3)c(=O)[nH]c12 (stereo not drawn) | inactive: > 76.9 µM |
| COc1ccc(N2CCN(Cc3nc4ccccc4c(=O)[nH]3)CC2)cc1 | inactive: > 76.9 µM |
| Cc1ccc(Cn2c(Sc3nccc(C)n3)nc3c2c(=O)[nH]c(=O)n3C)cc1 | inactive: > 76.9 µM |

| SMILES | Potency |
| --- | --- |
| COc1ccc(C(=O)COC(=O)CN2CC(=O)Oc3ccccc32)cc1Br | inactive: > 76.9 µM |
| CC1=CCC(Cc2nc3ccccc3o2)C1(C)C (stereo not drawn) | inactive: > 76.9 µM |
| O=C(Nc1cccc(Cl)c1)N(CCCN1CCOCC1)Cc1ccccc1F | active: 11.4 µM |
| Cc1ccc(N=Cc2c(O)n(C)c(=O)n(C)c2=O)nc1 | inactive: > 76.9 µM |
| COc1ccc(OCC(=O)N2CCN(C(=O)Cc3ccccc3)CC2)cc1 | inactive: > 76.9 µM |
| Fc1ccc(CSc2nncn2NCc2ccc3c(c2)OCO3)cc1 | inactive: > 76.9 µM |
| Cc1ccccc1N1CCN(C(=O)C2CCCCC2)CC1 | inactive: > 76.9 µM |
| OC(COc1ccc(Cl)cc1)CN1CCCCC1 (stereo not drawn) | inactive: > 76.9 µM |
| CC1CCN(S(=O)(=O)c2ccc(NC(=O)CN3CCN(C)CC3)cc2)CC1 | inactive: > 76.9 µM |
| Cc1ccc(Cn2nnc3c(=O)[nH]c(C4CCN(S(=O)(=O)c5ccc(C)cc5)CC4)nc32)cc1 | active: 13.9 µM |
| O=C(CSc1nc(C2CC2)nc2sc3c(c12)CCCC3)NCc1ccco1 | inactive: > 76.9 µM |
| CCC(c1nnnn1Cc1cccs1)N1CCN(C2CCCC2)CC1 (stereo not drawn) | inactive: > 76.9 µM |
| CC1(C)CC(=O)C(C(C2=C(O)CC(C)(C)CC2=O)c2cccnc2)C(=O)C1 (stereo not drawn) | inactive: > 76.9 µM |
| Cc1ccc(Cn2c(NCCc3ccccc3)nc3c2c(=O)n(C)c(=O)n3C)cc1 | inactive: > 76.9 µM |
| O=C(Nc1cccnc1)C1CC(c2ccc(Cl)c(Cl)c2)=NO1 (stereo not drawn) | inactive: > 76.9 µM |
| COC(=O)c1cc(=O)nc2sc(-c3ccc(F)cc3)nn12 | inactive: > 76.9 µM |
| O=C(NC1CCS(=O)(=O)C1)c1cn(-c2ccccc2)nc1-c1ccccc1 (stereo not drawn) | inactive: > 76.9 µM |
| COc1ccccc1C(=O)Nc1c2c(nn1-c1cccc(C)c1C)CS(=O)C2 (stereo not drawn) | inactive: > 76.9 µM |
| O=C(COC(=O)c1ccccc1NC(=O)c1ccco1)NCc1ccc2c(c1)OCO2 | inactive: > 76.9 µM |
| CCC(OC(=O)c1ccco1)C(=O)NCc1ccco1 (stereo not drawn) | inactive: > 76.9 µM |
| COCCN1Cc2cccc(C(=O)Nc3cccc(OC)c3)c2C1=O | inactive: > 76.9 µM |
| Cc1ccc2cc(C(c3nnnn3Cc3ccccc3)N3CCN(c4ccccc4)CC3)c(=O)[nH]c2c1 (stereo not drawn) | inactive: > 76.9 µM |
